Results as given in PubChem BioAssay AID1347055 (National Center for Advancing Translational Sciences (NCATS), 2019).
The campaign covered roughly 54,000 compounds. About 120 (0.22%) were called active. Inconclusive means that the source gave no clear call. Such entries were picked first, then a sample of the others. The call rests on the fitted dose curve; in most records, active means well fitted inhibition curve with a large enough effect; inconclusive means small, poorly fitted or top-dose-only effect, or effect the other way; inactive means flat fitted curve, though single readings scatter. No potency is given beside an inconclusive call; the fits are too rough.

biological target: Fumarate hydratase, mitochondrial (Homo sapiens) (UniProt P07954); experiment: Identification of activators of human fumarate hydratase by quantitative high-throughput screening; details: FH coupled MDH/diaphorase resazurin fluorescence, 15 min; activity change, negative = inhibition: at 79.9 µM (top of the series); further: the screen sought activators but most active calls are inhibition curves; nearly all actives have a fitted effect of over 45% in size
On the % scale 0 is the no-effect control and ±100 the full control effect; potency means the concentration at half of the fitted maximal effect; tags describe the fitted curve by direction and shape.

Chain of UniProt P07954 (P07954 whole entry, looked up): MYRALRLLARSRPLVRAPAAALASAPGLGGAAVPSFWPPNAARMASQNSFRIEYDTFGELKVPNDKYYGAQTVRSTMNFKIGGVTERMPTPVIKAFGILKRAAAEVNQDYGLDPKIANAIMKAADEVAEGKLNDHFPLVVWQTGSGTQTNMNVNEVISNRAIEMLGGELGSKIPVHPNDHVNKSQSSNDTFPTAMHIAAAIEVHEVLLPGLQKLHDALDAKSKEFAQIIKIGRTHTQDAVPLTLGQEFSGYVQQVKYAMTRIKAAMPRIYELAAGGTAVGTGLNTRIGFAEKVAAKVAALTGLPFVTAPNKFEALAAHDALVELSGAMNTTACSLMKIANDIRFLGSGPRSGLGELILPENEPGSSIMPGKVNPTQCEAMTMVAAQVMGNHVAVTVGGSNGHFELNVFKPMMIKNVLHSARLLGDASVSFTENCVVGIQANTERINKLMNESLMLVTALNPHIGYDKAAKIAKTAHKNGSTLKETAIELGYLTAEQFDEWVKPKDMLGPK

| SMILES | Potency | activity change, negative = inhibition |
| --- | --- | --- |
| COc1ccc(CCNc2oc(/C=C/c3ccc(OC)c(OC)c3)nc2C#N)cc1 | inconclusive [inhibitor, partial curve, poor fit] |  |
| CC(=O)Nc1ccc(C)cc1-c1nc2ccccc2n(Cc2cccc(Br)c2)c1=O |  | inactive: -4.58% |
| CCc1ccc(-n2nc(C)c3c(C(=O)Nc4ccc(Cl)cc4)cc(C)nc32)cc1 | inconclusive [inhibitor, partial curve, poor fit] |  |
| COc1cc(O)ccc1-c1nc2ccc(Br)cn2c1Nc1ccccc1C | inconclusive [inhibitor, single point] |  |
| COc1ccc(NC(=O)C2(S(=O)(=O)c3ccc(C)cc3)CC2)c(OC)c1 | inconclusive [inhibitor, partial curve] |  |
| CCCN(CCC)C(=O)Cn1c(=O)n(-c2ccc(CC)cc2)c(=O)c2c3c(sc21)CCC3 |  | inactive: -11.1% |
| Cc1ccc(C(=O)NCCSc2c[nH]c3ccccc23)cc1C | inconclusive [inhibitor, single point] |  |
| CC1=CC(=O)C2(OC3OC(C)C(O)C(OC(=O)/C=C/c4ccccc4)C3O)C=COC(OC3OC(CO)C(O)C(O)C3O)C12 (stereo not given) |  | inactive: -0.218% [at 20.6 µM] |
| CCN(C(=O)CSc1nc(-c2ccccc2)no1)c1cccc(C)c1 | inconclusive [inhibitor, partial curve] |  |
| CCC(CO)Nc1ncnc2c1cnn2-c1ccc(C)cc1 (stereo not given) |  | inactive: -4.79% |
| CCCNc1nc(NCc2ccccc2OC)c2cnn(C)c2n1 |  | inactive: -11.7% |
| CCN(CCCNC(=O)c1cc2c(=O)[nH]c3ccc(C)cc3c2s1)c1ccc(C)cc1 | inconclusive [inhibitor, partial curve] |  |
| CCc1ccc(-n2nc(C)c3c(C(=O)NCCc4ccc(OC)c(OC)c4)cc(C)nc32)cc1 | inconclusive [inhibitor, single point] |  |
| COc1ccc(-c2nn(CC(=O)Nc3ccccc3F)c3c2cnc2ccc(F)cc23)cc1 | inconclusive [inhibitor, single point] |  |
| O=C(O)c1ccc2nc(-c3cc4cc(F)ccc4oc3=O)[nH]c2c1 |  | inactive: -22.1% |
| Cn1cnc2c1c(=O)[nH]c(=O)n2C | inactive |  |
| CNC(C)C(=O)NC(C(=O)N1CCCC1C(=O)Nc1snnc1-c1ccccc1)C1CCCCC1 (stereo not given) |  | inactive: 3.35% |
| CC(C)c1nn2c(=O)cc(COC(=O)c3ccccc3NC(=O)c3cccs3)nc2s1 | inconclusive [inhibitor, single point] |  |
| Cc1ccc(C)c(N2CCN(C(=O)c3ccc4c(c3)c(C)c(C)n4C)CC2)c1 | inconclusive [inhibitor, partial curve, poor fit] |  |
| COc1ccc(Nc2nnc(-c3ccc(C)c(S(=O)(=O)N4CCN(C)CC4)c3)c3ccccc23)cc1 | inconclusive [inhibitor, single point] |  |

| SMILES | Potency | activity change, negative = inhibition |
| --- | --- | --- |
| COC(=O)C1=C(C)NC(C)=C(C(=O)O[C@@H]2CCCN(Cc3ccccc3)C2)[C@@H]1c1cccc([N+](=O)[O-])c1 | inconclusive [inhibitor, single point] |  |
| CCOC(=O)c1sc(NC(=O)[C@H](C(C)C)n2c(=O)[nH]c3ccccc3c2=O)nc1C | inconclusive [inhibitor, partial curve] |  |
| CCOc1ccccc1NC(=O)Cn1nc2c3cc(F)ccc3n(Cc3cccc(C)c3)cc-2c1=O | inconclusive [inhibitor, partial curve] |  |
| COc1ccc(/C=C/c2nc(C#N)c(NC3CCCCC3)o2)cc1OC | inconclusive [inhibitor, single point] |  |
| CCc1cccc(C)c1Nc1c(-c2cccc(O)c2)nc2cnccn12 | inconclusive [inhibitor, single point] |  |
| COC(=O)c1ccc(NC(=O)Cc2coc3cc(C)ccc23)cc1 | inconclusive [inhibitor, partial curve, poor fit] |  |
| CC(=O)N[C@@H](Cc1c[nH]c2ccccc12)C(=O)OCc1cc(C(F)(F)F)cc(C(F)(F)F)c1 | inconclusive [inhibitor, single point] |  |
| C/C=C(/C)C(=O)O[C@H]1[C@H](OC(=O)/C(C)=C\C)[C@@]23C(CC1(C)C)[C@]1(CCC4[C@@]5(C)CC[C@H](O[C@@H]6O[C@H](C(=O)O)[C@@H](O)[C@H](O[C@@H]7O[C@H](CO)[C@H](O)[C@H](O)[C@H]7O[C@@H]7O[C@@H](C)[C@H](O)[C@@H](O)[C@H]7O[C@@H]7OC[C@@H](O)[C@H](O)[C@H]7O)[C@H]6O[C@@H]6O[C@H](CO)[C@H](O)[C@H](O)[C@H]6O)C(C)(C)C5CC[C@@]4(C)[C@]1(C)C[C@H]2O)O[C@H]3O (stereo not given in full) |  | inactive: 7.32% [at 13.5 µM] |
| Cc1nc2nc(SCC(=O)NCc3ccccc3)nn2c(C)c1Cc1ccccc1Cl | inconclusive [inhibitor, partial curve, poor fit] |  |
| Cc1ccc(-n2ncc3c(NCCc4ccccc4)ncnc32)cc1C |  | inactive: -14.8% |
| O=C(Cn1nc(N2CCN(c3ccccc3)CC2)ccc1=O)NCc1cccc(Cl)c1 |  | inactive: -1.16% |
| Cc1cc(Cl)ccc1NS(=O)(=O)c1ccc2c(c1)CCN2S(C)(=O)=O | inconclusive [inhibitor, single point] |  |
| CC1CCCCN1S(=O)(=O)c1ccc(F)c(C(=O)Nc2ccccc2C(F)(F)F)c1 (stereo not given) | inconclusive [inhibitor, partial curve] |  |
| CCOC(=O)C1CCN(c2cc3c(cc2NC(=O)c2ccc(OC)c(OC)c2)n(C)c(=O)n3C)CC1 | inconclusive [inhibitor, partial curve, poor fit] |  |
| Cc1ccc(Cc2c(C)nc3nc(SCC(=O)NCCN4CCNCC4)nn3c2C)cc1 |  | inactive: -0.213% |
| COc1ccc(/C=C/C(=O)Nc2ccc3nc(N4CCC(C)CC4)cc(C)c3c2)cc1OC | inconclusive [inhibitor, single point] |  |
| CC1CCN(S(=O)(=O)c2ccc3ncn(CC(=O)Nc4ccccc4C(F)(F)F)c(=O)c3c2)CC1 |  | inactive: -25.9% |
| CCN(CC)S(=O)(=O)c1ccc2c(c1)c(=O)c(C(=O)N(C)Cc1ccccc1)cn2C |  | inactive: -2.39% |
| COc1ccc(OC)c(NCc2cccn2-c2nnc(N3CCC(C)CC3)s2)c1 | inconclusive [inhibitor, partial curve] |  |
| CC(C)(C)OC(=O)N1CCC(c2c(C(=O)Nc3ccc4c(c3)OCCO4)cnn2-c2ccc(F)cc2)CC1 | inconclusive [inhibitor, partial curve, poor fit] |  |

| SMILES | Potency | activity change, negative = inhibition |
| --- | --- | --- |
| Cc1c(OCc2cccc(-c3ccc(C(=O)O)cc3)c2)cc2c(c1C)C(=O)C(C1CCCC1)C2 (stereo not given) | inconclusive [inhibitor, single point] |  |
| Cc1cc(NC(=O)CC(C)C)cc(-c2nc3ncccc3o2)c1O |  | inactive: -0.21% |
| CC1CCN(C(=O)c2ccccc2NC(=O)c2nsc3ccccc23)CC1 | inconclusive [inhibitor, partial curve] |  |
| Cc1nn(C)c2c1c(-c1ccccc1)cc(=O)n2C(C)C(=O)NCCc1ccc(Cl)cc1 (stereo not given) | inconclusive [inhibitor, partial curve, poor fit] |  |
| COc1ccc(CC(=O)Nc2ccc(-c3nc4ccccc4s3)cc2Cl)cc1OC | inconclusive [inhibitor, partial curve, poor fit] |  |
| Cc1cccc(C)c1NC(=O)c1c(C)oc2c1C1=NCCN1C=N2 | inconclusive [activator, single point] |  |
| CCCOCc1cc(CN2CCN(c3cccc(Cl)c3)CC2)c(O)c2ncccc12 | inconclusive [activator, partial curve] |  |
| COc1ccc(Nc2cc(C(=O)NCCCN(C)c3ccccc3)c3ccccc3n2)c(OC)c1 | inconclusive [inhibitor, partial curve, poor fit] |  |
| Cc1nc2cc(-c3ccccc3)nn2c(C)c1CCC(=O)NCCc1ccccc1 |  | inactive: -10.7% |
| Cc1ccc2oc(=O)c(-c3nc4ccc(C)cc4[nH]3)cc2c1 |  | inactive: -14.3% |
| CC1CCC23COC(=O)C2=CC(O)CC3C1(C)CCc1ccoc1 (stereo not given) |  | inactive: 7.06% [at 53.3 µM] |
| O=C(N[C@H]1CCN(C(=O)c2cc(C(F)(F)F)cc(C(F)(F)F)c2)[C@H](Cc2ccc(Cl)cc2)C1)c1ccnc2ccccc12 | inconclusive [inhibitor, single point] |  |
| CSc1ccc(CC2C(=O)Nc3ccccc32)cc1 (stereo not given) | inconclusive [inhibitor, partial curve, poor fit] |  |
| CCc1ccc(NC(=O)C2=CC(c3ccc4c(c3)OCO4)=NS(=O)(=O)N2C)cc1 | inconclusive [inhibitor, partial curve, poor fit] |  |
| O=c1c2cc3c(nc2ncn1Cc1ccc(Cl)cc1)CCCC3 |  | inactive: -8.39% |
| Cc1oc(-c2cccc(Cl)c2)nc1CN1CCCC(C(=O)NCc2ccc(Cl)cc2)C1 (stereo not given) | inconclusive [inhibitor, partial curve, poor fit] |  |
| COc1cc(OC)cc(C(=O)Nc2cccc(-c3cn4cccnc4n3)c2)c1 |  | inactive: -1.41% |
| CCc1cccc(C)c1NC(=O)CN1C(=O)C2(SCC(=O)N2c2cc(C)cc(C)c2)c2ccccc21 (stereo not given) | inconclusive [inhibitor, partial curve, poor fit] |  |
| CC(C=CC1=C(C)CCCC1(C)C)=CC=CC(C)=CC(=O)Nc1ccc(O)cc1 |  | inactive: -9.1% |
| Cc1ccc(CNC(=O)CN2C(=O)C3(SCC(=O)N3c3cc(C)cc(C)c3)c3ccccc32)cc1 (stereo not given) | inconclusive [inhibitor, partial curve, poor fit] |  |
